# Laboratory results taken from PubChem BioAssay (NCATS).
# This list was built around the results that the source calls inconclusive (neither active nor inactive); the mix of calls is not that of the screen. For part of these data: No potency is given beside an inconclusive call; the fits are too rough. Activity calls are given as the source filed them. Unless noted, calls come from the whole dose curve; as a rule, active = well fitted curve in the direction sought with a large enough effect; inconclusive = small, poorly fitted or top-dose-only effect, or another doubt; inactive = no such curve, though single readings can be large; an effect the other way counts as inactive or inconclusive. *1 amine or outer side, *2 acyl side, *3 side chain or, on linkers, in order; H or OH if unused. Where a SMILES comes first, the peptide text is derived from it. Bridges are numbered along the chain shown (N, C = ends). Roman numbers before positions name the chains, in order. [ ]: non-standard residue; d: D form. Actinocin(9to1) = Cc1c2oc3c(C)ccc(C(=O)[*:1])c3nc-2c(C(=O)[*:2])c(N)c1=O; NMeV = CN[CH](C(=O)O)C(C)C; Sar = CNCC(=O)O
# Tests used:
# [1] = qHTS of pediatric cancer cell lines to identify multiple opportunities for drug repurposing: Primary screen for Saos-2 cells (AID 1347097); note: nearly all actives have a fitted effect of over 40% in size; note: potency is the fitted concentration of half-maximal effect
# Procedure, shortened: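 Following a 5-hour attachment period, cells at 500-1,000/well received compounds and were cultured for 48 hours. CellTiter-Glo was added and luminescence read to estimate viable, metabolically active cells.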
# [2] = qHTS of pediatric cancer cell lines to identify multiple opportunities for drug repurposing: Confirmatory screen for BT-37 cells (AID 1347117); note: potency is the fitted concentration of half-maximal effect; nearly all actives have a fitted effect of over 55% in size
# Procedure, shortened: (§1)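 Cells (500-1,000/well) rested 5 h, then received compounds for 48 h; metabolically active cells were measured by CellTiter-Glo luminescence. Final concentrations spanned up to 46 µM (MIPE, 11-point) or 0.59 nM-46 µM (NPC, 8-point) in primary screens, 11-point in follow-ups.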
# [3] = qHTS of pediatric cancer cell lines to identify multiple opportunities for drug repurposing: Confirmatory screen for U-2 OS cells (AID 1347122); note: potency is the fitted concentration of half-maximal effect; nearly all actives have a fitted effect of over 65% in size
# Procedure, shortened: as §1
# [4] = qHTS of pediatric cancer cell lines to identify multiple opportunities for drug repurposing: Confirmatory screen for BT-12 cells (AID 1347112); note: potency is the fitted concentration of half-maximal effect;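 note: viability read after 48 h of compound exposure; nearly all actives have a fitted effect of over 55% in size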
# Procedure, shortened: as §1
# [5] = qHTS of pediatric cancer cell lines to identify multiple opportunities for drug repurposing: Confirmatory screen for Rh30 cells (AID 1347126); note: nearly all actives have a fitted effect of over 55% in size; note: potency is the fitted concentration of half-maximal effect
# Procedure, shortened: as §1
# [6] = qHTS of pediatric cancer cell lines to identify multiple opportunities for drug repurposing: Confirmatory screen for MG 63 (6-TG R) cells (AID 1347119); note: potency is the fitted concentration of half-maximal effect; nearly all actives have a fitted effect of over 55% in size
# Procedure, shortened: as §1
# [7] = Quantitative High-Throughput drug screen in 47 multiple myeloma cell lines against the NCATS MIPE library collection: FR4_PLB cell viability assay (AID 1918924; note: potency is the fitted concentration of half-maximal effect; nearly all actives have a fitted effect of over 35% in size)
# Procedure, shortened: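 Approved and investigational drugs from MIPE 4.0 were added by pin tool to 500 cells per well. After 48 hours at 37C, ATP-based CellTiter-Glo luminescence indicated remaining viability.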
# [8] = Quantitative High-Throughput drug screen in 47 multiple myeloma cell lines against the NCATS MIPE library collection: AMO1_DSMZ cell viability assay (AID 1918927; note: nearly all actives have a fitted effect of over 30% in size; note: potency is the fitted concentration of half-maximal effect); details: AMO1 myeloma cells viability, CellTiter-Glo ATP luminescence, 48 h; viability, % of DMSO: at 45.8 µM (top of the series)
# Procedure, shortened: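 We plated 500 myeloma cells per well, pinned in MIPE 4.0 compounds, and incubated for 48 hours at 37C. ATP was then quantified with CellTiter-Glo, with DMSO and media-only wells defining 100% and 0%.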
# [9] = Quantitative High-Throughput drug screen in 47 multiple myeloma cell lines against the NCATS MIPE library collection: OCIMY5_PLB cell viability assay (AID 1918988); note: nearly all actives have a fitted effect of over 65% in size; note: potency is the fitted concentration of half-maximal effect
# Procedure, shortened: (§2)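 ATP-based luminescence (CellTiter-Glo, 5 min RT incubation) quantified surviving cells following two days' treatment with MIPE 4.0 agents at 37 °C, 5% CO2.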
# [10] = Quantitative High-Throughput drug screen in 47 multiple myeloma cell lines against the NCATS MIPE library collection: PE2_PLB cell viability assay (AID 1919869); note: potency is the fitted concentration of half-maximal effect; nearly all actives have a fitted effect of over 35% in size
# Procedure, shortened: as §2
# [11] = Quantitative High-Throughput drug screen in 47 multiple myeloma cell lines against the NCATS MIPE library collection: KMS11_JCRBsus cell viability assay (AID 1919873); note: nearly all actives have a fitted effect of over 50% in size; note: potency is the fitted concentration of half-maximal effect
# Procedure, shortened: as §2
# [12] = tested on: CP335; test: qHTS profiling for inhibitors of Plasmodium falciparum proliferation (AID 504749); note: nearly all actives have a fitted effect of over 60% in size; note: potency is the fitted concentration of half-maximal effect; details: P. falciparum in erythrocytes, SYBR Green DNA, 72 h; series mostly up to 28.7 µM
# Procedure, shortened: (§3)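 In a 72 h erythrocytic culture (37 C, humidified, 5% CO2) at 2.5% hematocrit and 0.3% starting parasitemia, compounds were tested; SYBR Green I in detergent lysis buffer stained parasite DNA overnight.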
# [13] = tested on: DIV14; test: as above; details: P. falciparum in erythrocytes, SYBR Green DNA, 72 h; series mostly up to 28.7 µM
# Procedure, shortened: as §3
# [14] = tested on: TAB109; test: as above; details: P. falciparum in erythrocytes, SYBR Green DNA, 72 h; series mostly up to 28.7 µM
# Procedure, shortened: as §3
# [15] = target: Cytochrome P450 3A4 (Homo sapiens) (UniProt P08684); test: Cytochrome P450 family 3 subfamily A member 4 (CYP3A4) small molecule antagonists: luciferase qHTS assay (AID 1645841; active = well fitted curve in the direction sought with a large enough effect in the repeat runs; inconclusive = weak or mixed curves; inactive = no such curve, though single readings can be large; an effect the other way counts as inactive or inconclusive; note: nearly all actives have a fitted effect of over 45% in size; note: potency is the fitted concentration of half-maximal effect)
# Procedure, shortened: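 Luminescent CYP3A4 activity readout: compounds plus enzyme-substrate mix 10 min at room temperature, reaction started with NADPH regenerating system for 1 h, stopped with detection reagent, read after 20 min. Ketoconazole served as control.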
# [16] = Quantitative High-Throughput drug screen in 47 multiple myeloma cell lines against the NCATS MIPE library collection: ARP1_JJKsccF8 cell viability assay (AID 1918928; note: nearly all actives have a fitted effect of over 40% in size; note: potency is the fitted concentration of half-maximal effect)
# Procedure, shortened: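 Cell viability inhibition in this qHTS is measured via ATP content (CellTiter-Glo) after 48 h drug exposure at 37 °C. Wells hold 500 cells; DMSO-treated wells define 100% and medium-only wells 0%.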
# [17] = Quantitative High-Throughput drug screen in 47 multiple myeloma cell lines against the NCATS MIPE library collection: KMS12BM_JCRB cell viability assay (AID 1918971); note: nearly all actives have a fitted effect of over 35% in size; note: potency is the fitted concentration of half-maximal effect
# Procedure, shortened: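 Viability readout: CellTiter-Glo luminescence following 5 min room-temperature incubation with reagent. Prior exposure: 48 h, 37C, humidified 5% CO2, 500 cells per well.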
# [18] = Quantitative High-Throughput drug screen in 47 multiple myeloma cell lines against the NCATS MIPE library collection: RPMI8226_ATCC cell viability assay (AID 1919871); note: nearly all actives have a fitted effect of over 30% in size; note: potency is the fitted concentration of half-maximal effect
# Procedure, shortened: as §2
# [19] = tested on: WaGa; test: qHTS assay to identify novel small-molecules to repurpose for Merkel cell carcinoma treatment (AID 1296009); details: MCC and control cell lines, CellTiter-Glo viability, 72 h; series mostly up to 46 µM; note: potency is the fitted concentration of half-maximal effect; nearly all actives have a fitted effect of over 60% in size
# Procedure, shortened: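 Cell viability measured by CellTiter-Glo following 72 hr compound treatment at 37 degree celsius, with NPC and MIPE libraries tested in 8- and 11-point concentration series.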
# [20] = Quantitative High-Throughput drug screen in 47 multiple myeloma cell lines against the NCATS MIPE library collection: SKMM1_PLB cell viability assay (AID 1919863); details: SKMM1 myeloma viability, CellTiter-Glo ATP, 48 h; viability: stronger effect = lower value; note: nearly all actives have a fitted effect of over 35% in size
# Procedure, shortened: as §2
# Tags give direction and shape of the fitted curve.
# Chain of UniProt P08684 (P08684 whole entry, looked up): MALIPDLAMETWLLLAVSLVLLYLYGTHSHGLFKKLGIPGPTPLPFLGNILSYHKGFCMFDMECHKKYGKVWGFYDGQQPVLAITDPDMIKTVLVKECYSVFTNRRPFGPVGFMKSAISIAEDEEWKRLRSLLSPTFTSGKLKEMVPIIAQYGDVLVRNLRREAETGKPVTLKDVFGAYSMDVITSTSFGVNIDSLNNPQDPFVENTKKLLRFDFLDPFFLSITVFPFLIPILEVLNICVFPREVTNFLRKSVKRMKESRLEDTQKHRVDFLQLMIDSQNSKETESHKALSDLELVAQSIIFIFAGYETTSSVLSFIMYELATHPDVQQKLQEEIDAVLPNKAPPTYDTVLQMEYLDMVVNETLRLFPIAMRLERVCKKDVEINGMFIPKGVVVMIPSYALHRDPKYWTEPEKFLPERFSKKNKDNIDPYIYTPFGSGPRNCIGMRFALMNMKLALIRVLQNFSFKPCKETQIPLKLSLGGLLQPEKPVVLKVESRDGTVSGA
compound,measurement,setting,value
O=c1[nH]sc2cc(Cl)ccc12,Potency,[1],"inconclusive [cytotoxic, single point]"
same,Potency,[2],"inconclusive [cytotoxic, single point]"
same,Potency,[3],"inconclusive [cytotoxic, partial curve]"
NC(CO)(CO)CO,Potency,[4],inactive
same,Potency,[5],"inconclusive [cytotoxic, single point]"
COc1cc2c(NC3CCN(C(C)C)CC3)nc(C3CCCCC3)nc2cc1OCCCN1CCCC1,Potency,[4],"inconclusive [cytotoxic, single point]"
same,Potency,[6],"inconclusive [cytotoxic, partial curve, poor fit]"
same,Potency,[7],active: 7.43 µM
same,Potency,[8],"inconclusive [cytotoxic, single point]"
same,Potency,[9],active: 6.62 µM
same,Potency,[10],active: 5.26 µM
same,Potency,[11],active: 8.33 µM
CCCCc1ncc(/C=C(\Cc2cccs2)C(=O)O)n1Cc1ccc(C(=O)O)cc1,Potency,[12],inactive
O=C(Nc1ccc([N+](=O)[O-])cc1)Nc1ccc([N+](=O)[O-])cc1,Potency,[1],inactive
same,Potency,[13],"inconclusive [inhibitor, partial curve, poor fit]"
COc1ccc(C(=O)c2ccccc2)c(O)c1,Potency,[3],"inconclusive [cytotoxic, full curve, poor fit]"
same,Potency,[12],"inconclusive [inhibitor, single point]"
same,Potency,[13],"inconclusive [inhibitor, single point]"
same,Potency,[14],"inconclusive [inhibitor, single point]"
CCN1CCCC1CN (centres undefined),Potency,[15],"inconclusive [falling, partial curve, poor fit]"
CN(C)c1ccc(C(=O)NCCCCCCC(=O)NO)cc1,Potency,[1],active: 0.118 µM
same,Potency,[7],active: 0.132 µM
same,Potency,[9],active: 0.469 µM
CC(C)(C)NC(=O)[C@H]1CN(Cc2cccnc2)CCN1C[C@@H](O)C[C@@H](Cc1ccccc1)C(=O)N[C@H]1c2ccccc2C[C@H]1O,Potency,[2],"inconclusive [cytotoxic, single point]"
same,Potency,[7],"inconclusive [cytotoxic, single point]"
same,Potency,[8],"inconclusive [rising, partial curve]"
same,Potency,[16],"inconclusive [cytotoxic, single point]"
same,Potency,[17],"inconclusive [cytotoxic, single point]"
same,Potency,[10],"inconclusive [cytotoxic, single point]"
same,Potency,[18],"inconclusive [cytotoxic, single point]"
same,Potency,[11],active: 18.7 µM
same,Potency,[12],active: 12 µM
same,Potency,[13],active: 13.5 µM
same,Potency,[14],"inconclusive [inhibitor, single point]"
O=C(c1ccc(F)cc1)C1CCN(CCn2c(=S)[nH]c3ccccc3c2=O)CC1,Potency,[12],"inconclusive [inhibitor, partial curve, poor fit]"
same,Potency,[13],"inconclusive [inhibitor, single point]"
same,Potency,[14],active: 4.47 µM
same,Potency,[19],"inconclusive [inhibitor, single point]"
"Cc1c2oc3c(C)ccc(C(=O)NC4C(=O)NC(C(C)C)C(=O)N5CCCC5C(=O)N(C)CC(=O)N(C)C(C(C)C)C(=O)OC4C)c3nc-2c(C(=O)NC2C(=O)NC(C(C)C)C(=O)N3CCCC3C(=O)N(C)CC(=O)N(C)C(C(C)C)C(=O)OC2C)c(N)c1=O (centres undefined) (I: TVP[Sar][NMeV] / II: TVP[Sar][NMeV]; ester I:1-I:C, II:1-II:C; linker I:N-II:N via Actinocin(9to1); configuration not given here)",Potency,[6],"inconclusive [cytotoxic, full curve]"
same,Potency,[3],"inconclusive [cytotoxic, full curve, poor fit]"
same,Potency,[5],inactive
same,Potency,[8],inactive
same,Potency,[16],inactive
same,Potency,[17],inactive
same,Potency,[9],inactive
same,viability,[20],inactive: -11%
same,Potency,[18],inactive
same,Potency,[11],inactive
CCCCCCCCCCOCC(O)CN (centres undefined),Potency,[1],"inconclusive [cytotoxic, single point]"
same,Potency,[15],inconclusive
same,Potency,[12],"inconclusive [inhibitor, partial curve]"
same,Potency,[14],"inconclusive [inhibitor, partial curve]"
c1cc(OCCCN2CCCCC2)ccc1CN1CCCCC1,Potency,[15],inactive
CCOC(=O)C1=C(C)NC(C)=C(C(=O)OCC)C1c1ccccc1/C=C/C(=O)OC(C)(C)C,Potency,[1],"inconclusive [cytotoxic, single point]"
